Source: paper PMC2946606
Results are given in words; binding and its absence hold for the method and conditions named. Binding seen in cells or lysates may run through a third protein. Some results given as binding are weak or reduced against the parent protein; the word gives no strength. For some of these results: Sequences can lack the tags named with a protein.

By UniProt entry, the sequences of proteins in these tests, tags left out. Where a name states a change or a piece, a line headed by the entry shows the natural chain unless it says otherwise. Residues count along the entry.
UniProt P03372: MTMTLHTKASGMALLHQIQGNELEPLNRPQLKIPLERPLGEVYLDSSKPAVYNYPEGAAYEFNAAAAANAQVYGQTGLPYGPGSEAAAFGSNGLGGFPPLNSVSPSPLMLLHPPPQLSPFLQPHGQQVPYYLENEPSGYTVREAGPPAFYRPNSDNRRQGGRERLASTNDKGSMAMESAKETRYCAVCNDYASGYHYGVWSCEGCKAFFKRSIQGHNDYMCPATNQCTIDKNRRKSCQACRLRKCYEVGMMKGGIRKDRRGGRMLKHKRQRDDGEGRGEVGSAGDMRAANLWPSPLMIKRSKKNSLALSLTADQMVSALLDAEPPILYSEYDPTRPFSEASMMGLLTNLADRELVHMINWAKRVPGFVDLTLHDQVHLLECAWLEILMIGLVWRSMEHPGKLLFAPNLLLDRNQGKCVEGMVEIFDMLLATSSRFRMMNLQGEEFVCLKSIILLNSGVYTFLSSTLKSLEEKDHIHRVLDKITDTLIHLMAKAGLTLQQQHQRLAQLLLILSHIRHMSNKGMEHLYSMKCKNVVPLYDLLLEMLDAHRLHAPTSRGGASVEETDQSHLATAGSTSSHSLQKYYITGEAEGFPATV
GST-Med1 fragment aa 860–980 (Q925J9, residues 860-980): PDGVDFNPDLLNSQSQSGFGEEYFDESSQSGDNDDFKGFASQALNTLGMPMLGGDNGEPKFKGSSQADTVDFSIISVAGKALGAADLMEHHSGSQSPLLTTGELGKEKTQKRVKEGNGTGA
GST-Med1 fragment aa 980–1055 (Q925J9, residues 980-1055): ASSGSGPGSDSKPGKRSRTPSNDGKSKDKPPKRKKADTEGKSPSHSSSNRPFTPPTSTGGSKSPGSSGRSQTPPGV
GST-Med1 fragment aa 1055–1130 (Q925J9, residues 1055-1130): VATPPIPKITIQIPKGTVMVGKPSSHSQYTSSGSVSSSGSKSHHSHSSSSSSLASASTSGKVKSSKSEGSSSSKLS
GST-Med1 fragment aa 1130–1250 (Q925J9, residues 1130-1250): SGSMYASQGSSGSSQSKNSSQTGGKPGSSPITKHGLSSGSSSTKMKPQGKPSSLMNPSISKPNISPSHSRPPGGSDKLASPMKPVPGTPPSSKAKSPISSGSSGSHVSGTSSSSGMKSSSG
GST-Med1 fragment aa 1250–1370 (Q925J9, residues 1250-1370): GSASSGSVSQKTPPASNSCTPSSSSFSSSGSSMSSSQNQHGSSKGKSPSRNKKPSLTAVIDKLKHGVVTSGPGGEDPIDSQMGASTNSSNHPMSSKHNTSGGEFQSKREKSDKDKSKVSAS
GST-ΔPBP^1470–1570 (Q925J9, residues 1470-1570): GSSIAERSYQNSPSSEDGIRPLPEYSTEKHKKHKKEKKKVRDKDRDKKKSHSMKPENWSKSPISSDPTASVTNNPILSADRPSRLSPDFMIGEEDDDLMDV
UniProt P19793: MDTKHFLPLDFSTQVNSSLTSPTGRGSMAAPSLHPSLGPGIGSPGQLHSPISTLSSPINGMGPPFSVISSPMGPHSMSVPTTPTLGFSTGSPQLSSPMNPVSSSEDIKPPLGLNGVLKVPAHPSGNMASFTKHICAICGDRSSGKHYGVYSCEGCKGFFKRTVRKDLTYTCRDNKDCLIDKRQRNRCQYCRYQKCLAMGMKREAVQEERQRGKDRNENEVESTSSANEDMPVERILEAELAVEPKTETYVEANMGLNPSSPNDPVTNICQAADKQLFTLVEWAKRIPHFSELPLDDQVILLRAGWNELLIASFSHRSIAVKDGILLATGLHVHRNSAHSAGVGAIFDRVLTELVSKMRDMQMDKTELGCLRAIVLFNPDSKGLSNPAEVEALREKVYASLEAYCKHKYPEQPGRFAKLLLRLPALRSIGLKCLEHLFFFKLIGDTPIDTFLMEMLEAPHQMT
UniProt Q92616: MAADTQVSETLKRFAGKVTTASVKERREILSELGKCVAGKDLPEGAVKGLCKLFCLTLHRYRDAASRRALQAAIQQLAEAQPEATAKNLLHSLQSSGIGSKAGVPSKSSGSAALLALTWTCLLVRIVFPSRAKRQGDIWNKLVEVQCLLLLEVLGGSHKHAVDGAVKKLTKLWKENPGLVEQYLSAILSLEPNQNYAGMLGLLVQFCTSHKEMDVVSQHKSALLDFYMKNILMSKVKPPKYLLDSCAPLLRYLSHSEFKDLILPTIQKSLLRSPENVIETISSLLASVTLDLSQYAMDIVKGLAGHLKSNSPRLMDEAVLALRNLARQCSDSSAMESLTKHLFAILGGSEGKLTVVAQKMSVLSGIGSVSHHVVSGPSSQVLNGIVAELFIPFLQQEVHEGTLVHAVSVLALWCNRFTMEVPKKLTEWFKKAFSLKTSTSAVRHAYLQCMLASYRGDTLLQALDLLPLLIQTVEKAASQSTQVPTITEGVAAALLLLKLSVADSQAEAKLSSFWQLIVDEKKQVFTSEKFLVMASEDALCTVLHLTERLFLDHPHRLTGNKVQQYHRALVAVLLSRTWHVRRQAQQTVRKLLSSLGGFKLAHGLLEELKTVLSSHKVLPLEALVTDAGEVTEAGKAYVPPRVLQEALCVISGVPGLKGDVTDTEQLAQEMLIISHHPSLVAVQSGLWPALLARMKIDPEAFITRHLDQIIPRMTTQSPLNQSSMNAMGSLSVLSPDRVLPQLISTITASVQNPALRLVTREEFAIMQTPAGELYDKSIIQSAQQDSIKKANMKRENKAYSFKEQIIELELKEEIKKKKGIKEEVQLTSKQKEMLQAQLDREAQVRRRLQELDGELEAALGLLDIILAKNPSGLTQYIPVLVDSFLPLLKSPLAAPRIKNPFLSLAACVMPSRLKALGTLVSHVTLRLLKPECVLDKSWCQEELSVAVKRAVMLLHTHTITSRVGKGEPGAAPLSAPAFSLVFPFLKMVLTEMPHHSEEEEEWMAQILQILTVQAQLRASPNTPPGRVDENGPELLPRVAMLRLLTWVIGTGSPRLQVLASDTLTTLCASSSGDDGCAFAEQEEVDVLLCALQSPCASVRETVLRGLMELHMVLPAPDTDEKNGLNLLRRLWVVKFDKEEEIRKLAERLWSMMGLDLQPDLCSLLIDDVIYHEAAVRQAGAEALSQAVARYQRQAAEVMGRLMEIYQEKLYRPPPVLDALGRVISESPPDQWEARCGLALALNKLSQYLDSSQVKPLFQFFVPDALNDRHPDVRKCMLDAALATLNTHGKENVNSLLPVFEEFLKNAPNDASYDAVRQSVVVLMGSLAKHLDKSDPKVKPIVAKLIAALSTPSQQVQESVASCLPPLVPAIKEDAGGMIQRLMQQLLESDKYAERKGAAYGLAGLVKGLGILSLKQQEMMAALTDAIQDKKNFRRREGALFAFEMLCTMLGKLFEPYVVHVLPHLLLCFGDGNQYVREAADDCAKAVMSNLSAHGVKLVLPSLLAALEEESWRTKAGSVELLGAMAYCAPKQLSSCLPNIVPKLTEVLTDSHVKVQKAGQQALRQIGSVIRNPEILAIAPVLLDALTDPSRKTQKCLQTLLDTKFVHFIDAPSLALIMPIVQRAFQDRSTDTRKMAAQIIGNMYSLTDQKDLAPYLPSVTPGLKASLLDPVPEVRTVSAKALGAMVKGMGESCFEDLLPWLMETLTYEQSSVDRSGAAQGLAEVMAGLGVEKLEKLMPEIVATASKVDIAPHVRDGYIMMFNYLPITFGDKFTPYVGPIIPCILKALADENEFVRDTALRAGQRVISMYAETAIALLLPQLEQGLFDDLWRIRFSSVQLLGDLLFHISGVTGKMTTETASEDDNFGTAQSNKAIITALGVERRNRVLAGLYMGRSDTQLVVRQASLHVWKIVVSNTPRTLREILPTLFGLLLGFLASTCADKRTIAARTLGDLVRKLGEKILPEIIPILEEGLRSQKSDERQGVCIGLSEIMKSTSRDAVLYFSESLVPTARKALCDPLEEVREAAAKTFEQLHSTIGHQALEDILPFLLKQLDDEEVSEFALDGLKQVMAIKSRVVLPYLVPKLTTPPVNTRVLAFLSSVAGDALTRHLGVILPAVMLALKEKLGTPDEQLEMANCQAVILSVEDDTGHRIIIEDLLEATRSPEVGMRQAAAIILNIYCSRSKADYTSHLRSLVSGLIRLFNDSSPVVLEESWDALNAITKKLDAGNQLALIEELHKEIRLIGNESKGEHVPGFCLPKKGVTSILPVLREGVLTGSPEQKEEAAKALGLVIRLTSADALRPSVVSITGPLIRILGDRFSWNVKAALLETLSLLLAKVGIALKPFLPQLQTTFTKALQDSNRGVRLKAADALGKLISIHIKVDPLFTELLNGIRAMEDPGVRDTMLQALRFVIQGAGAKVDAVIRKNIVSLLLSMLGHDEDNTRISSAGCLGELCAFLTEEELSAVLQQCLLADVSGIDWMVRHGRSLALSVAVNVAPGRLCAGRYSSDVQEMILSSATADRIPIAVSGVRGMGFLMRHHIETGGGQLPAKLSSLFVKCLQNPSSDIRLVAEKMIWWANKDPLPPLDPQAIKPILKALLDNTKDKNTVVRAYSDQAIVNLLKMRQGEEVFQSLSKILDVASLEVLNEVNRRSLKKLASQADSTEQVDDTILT

Experiments:
Test in all cases: pull-down; GST or GST-fusion protein on glutathione sepharose 4B beads, incubated with in vitro translated 35S-methionine PRIC295 or its fragments, 4°C, 2 hours, gentle shaker; washed, SDS-PAGE, autoradiography; nuclear receptors without and with receptor-specific ligand (10 μM to 100 μM); only the target purified
GST-CAR = target: T1, GST-CAR (UniProt O35627)
T1 sequence: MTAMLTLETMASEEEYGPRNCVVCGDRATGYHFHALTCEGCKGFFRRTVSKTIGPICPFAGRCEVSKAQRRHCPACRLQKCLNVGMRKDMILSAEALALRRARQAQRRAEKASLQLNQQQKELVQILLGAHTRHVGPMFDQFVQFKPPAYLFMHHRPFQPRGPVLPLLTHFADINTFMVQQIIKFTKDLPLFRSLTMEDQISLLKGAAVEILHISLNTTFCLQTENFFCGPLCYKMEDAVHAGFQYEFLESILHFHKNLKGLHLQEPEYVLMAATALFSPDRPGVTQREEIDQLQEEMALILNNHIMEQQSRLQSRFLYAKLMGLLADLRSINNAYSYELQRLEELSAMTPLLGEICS

GST-ERα = GST-ERα (UniProt P03372)
[1] = target: GST-Med1 fragment aa 1055–1130 (UniProt Q925J9)
[2] = target: GST-Med1 fragment aa 1130–1250 (UniProt Q925J9)
[3] = target: GST-Med1 fragment aa 1250–1370 (UniProt Q925J9)
[4] = target: GST-Med1 fragment aa 860–980 (UniProt Q925J9)
[5] = target: GST-Med1 fragment aa 980–1055 (UniProt Q925J9)
GST-RXRα = GST-RXRα (UniProt P19793)
GST-ΔPBP^1470–1570 = GST-ΔPBP^1470–1570 (UniProt Q925J9)
[6] = target: T2, Med24 (construct of the GST-pulldown of Figure 9(c)) (UniProt O75448)
T2 sequence: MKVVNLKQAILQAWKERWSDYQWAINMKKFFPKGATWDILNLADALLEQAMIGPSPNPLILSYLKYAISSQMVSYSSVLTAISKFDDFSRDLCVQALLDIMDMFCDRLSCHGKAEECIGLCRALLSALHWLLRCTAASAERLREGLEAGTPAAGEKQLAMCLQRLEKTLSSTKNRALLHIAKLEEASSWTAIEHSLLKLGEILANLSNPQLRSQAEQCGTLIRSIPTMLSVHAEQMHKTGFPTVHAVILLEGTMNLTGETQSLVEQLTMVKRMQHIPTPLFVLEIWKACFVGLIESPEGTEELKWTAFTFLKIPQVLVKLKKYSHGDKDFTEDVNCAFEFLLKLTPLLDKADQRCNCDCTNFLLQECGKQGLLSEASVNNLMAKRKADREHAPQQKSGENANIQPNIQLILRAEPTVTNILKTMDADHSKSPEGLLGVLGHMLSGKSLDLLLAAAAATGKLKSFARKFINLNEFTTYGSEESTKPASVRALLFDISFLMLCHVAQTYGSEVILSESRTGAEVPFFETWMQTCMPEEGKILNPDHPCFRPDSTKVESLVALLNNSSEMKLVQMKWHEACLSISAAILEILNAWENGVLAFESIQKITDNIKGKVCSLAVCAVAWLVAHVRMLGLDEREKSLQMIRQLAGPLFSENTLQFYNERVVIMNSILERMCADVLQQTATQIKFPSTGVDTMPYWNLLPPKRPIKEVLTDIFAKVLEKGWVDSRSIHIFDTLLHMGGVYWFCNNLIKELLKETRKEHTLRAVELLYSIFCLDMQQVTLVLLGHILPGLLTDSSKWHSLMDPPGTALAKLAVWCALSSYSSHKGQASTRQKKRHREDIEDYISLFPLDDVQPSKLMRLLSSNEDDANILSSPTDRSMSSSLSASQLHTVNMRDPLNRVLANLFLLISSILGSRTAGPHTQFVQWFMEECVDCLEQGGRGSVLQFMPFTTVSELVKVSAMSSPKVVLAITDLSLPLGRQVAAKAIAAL

binding (GST-CAR): binds | binding (GST-ERα): binds | binding [1]: no binding | binding [2]: no binding | binding [3]: no binding | binding [4]: no binding | binding [5]: no binding | binding (GST-RXRα): binds | binding (GST-ΔPBP^1470–1570): binds | binding [6]: binds
Substance: PRIC295 (PPARα-interacting cofactor 295), full-length, in vitro translated (from UniProt Q92616 1-2671)
